Experimental data taken from PubChem BioAssay AID1476 (National Center for Advancing Translational Sciences (NCATS), 2009).
Screen size: about 200,000 compounds; about 4,500 (2.2%) were called active. The shares of active, inactive and inconclusive entries below differ from those in the screen. Calls come from the whole dose curve; as a rule, active = well fitted inhibition curve with a large enough effect; inconclusive = small, poorly fitted or top-dose-only effect, or effect the other way; inactive = flat fitted curve, though single readings scatter. A potency beside an inconclusive call is a rough fit, not a confirmed value.

Target: Cruzipain (Trypanosoma cruzi) (UniProt P25779)
Assay: qHTS Assay for Promiscuous and Specific Inhibitors of Cruzain (without detergent); note: nearly all actives have a fitted effect of over 40% in size;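 for max response, negative = inhibition: plate controls were enzyme without inhibitor for no effect and buffer without enzyme for full effect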
Conditions: purified cruzain, Z-FR-AMC fluorescence, no detergent
How it was run: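 Detergent-free condition (0.00005% Triton X-100) in acetate buffer pH 5.5 with DTT. 1.5 nM enzyme and compound were pre-mixed 15 min, then 2 uM Z-FR-AMC substrate added; reaction progress from fluorescence change between first and third reads (60 s).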
Potency is the fitted concentration of half-maximal effect; tags give direction and shape of the fitted curve.

UniProt P25779, sequence (P25779 whole entry, looked up): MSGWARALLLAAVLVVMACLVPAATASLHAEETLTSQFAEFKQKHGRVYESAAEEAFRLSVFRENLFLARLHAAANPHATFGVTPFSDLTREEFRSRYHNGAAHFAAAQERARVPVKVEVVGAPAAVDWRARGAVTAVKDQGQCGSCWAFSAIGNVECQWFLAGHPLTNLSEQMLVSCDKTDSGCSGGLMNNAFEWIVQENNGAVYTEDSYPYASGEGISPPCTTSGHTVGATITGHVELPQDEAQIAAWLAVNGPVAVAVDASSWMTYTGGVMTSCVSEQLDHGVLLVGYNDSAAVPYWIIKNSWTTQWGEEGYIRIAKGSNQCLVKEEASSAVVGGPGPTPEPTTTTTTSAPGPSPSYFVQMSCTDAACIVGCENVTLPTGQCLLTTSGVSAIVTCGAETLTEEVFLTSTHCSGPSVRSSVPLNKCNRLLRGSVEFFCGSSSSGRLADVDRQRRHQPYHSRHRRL

Row | SMILES | Potency | max response, negative = inhibition
1 | CC(C)c1ccc(NC(=O)CSC2=Nc3ccccc3C3=NC(CC(=O)NCc4ccco4)C(=O)N23)cc1 (stereo not drawn) | inconclusive: 39.8 µM [activator, single point] | 
2 | O=C(COc1ccc(Cl)cc1)Nc1ccc(Cl)cn1 | inconclusive: 1 µM [inhibitor, full curve, poor fit] | 
3 | Cc1ccc(Oc2ncccc2/C=N/OCc2ccc(Cl)c(Cl)c2)cc1 | inconclusive: 25.1 µM [inhibitor, single point] | 
4 | COc1ccccc1-c1cc2nc(C)c(CCC(=O)NC(C)CCc3ccco3)c(C)n2n1 (stereo not drawn) | inconclusive: 39.8 µM [activator, single point] | 
5 | COc1ccc(C(=O)Nc2ccc3c(c2)N(C)C(=O)c2ccccc2S3)cc1OC | inconclusive: 39.8 µM [activator, single point] | 
6 | CCCCCCn1c(N2CCN(c3ccccc3)CC2)nc2c1c(=O)n(C)c(=O)n2C | inconclusive: 31.6 µM [activator, single point] | 
7 | CC[C@H](C)[C@@H]1O[C@]2(CC[C@@H]1C)C[C@H]1C[C@H](CC=C(C)[C@@H](O[C@@H]3C[C@H](OC)[C@H](O[C@@H]4C[C@H](OC)[C@H](O)[C@H](C)O4)[C@H](C)O3)[C@@H](C)C=CC=C3CO[C@@H]4[C@@H](O)C(C)=C[C@@H](C(=O)O1)[C@]34O)O2 | inconclusive: 10 µM [activator, partial curve] | 
8 | CCOC(=O)C1CCC(CN(Cc2ccc(OC)cc2)S(=O)(=O)c2ccc(F)c(C(=O)Nc3cc(Cl)ccc3OC)c2)CC1 (stereo not drawn) |  | inactive: 8.15%
9 | Cn1cc(-c2cc3n(n2)CCC(=O)N3CCCC(=O)NCc2ccccc2)c2ccccc21 | inconclusive: 25.1 µM [activator, single point] | 
10 | CC(=O)N1CCc2c(sc3c2c(=O)n(-c2ccccc2)c(=O)n3CC(=O)c2ccc(F)cc2)C1 |  | inactive: -2.06%
11 | COc1cc(C(=O)Nc2nnc(CC(C)(C)C)s2)cc(OC)c1OC | inconclusive: 39.8 µM [activator, single point] | 
12 | O=C(N/N=C\c1ccc(Sc2ccccn2)o1)c1cccc(F)c1 |  | inactive: -0.551%
13 | COC(=O)c1ccc(OCC2c3cc(OC)c(OC)cc3CCN2C(=O)Cc2ccc(OC)c(OC)c2)cc1 (stereo not drawn) | inconclusive: 20 µM [activator, partial curve] | 
14 | COc1ccc(S(=O)(=O)N(CCCN2CCCC2=O)Cc2cc3c(C)cc(C)cc3[nH]c2=O)cc1 | inconclusive: 25.1 µM [activator, partial curve] | 
15 | COc1cc(/C=c2\sc3nc(-c4ccncc4)nn3c2=O)ccc1OC(C)=O | inconclusive: 25.1 µM [activator, single point] | 
16 | Cn1nnnc1SCCCNCc1cc(Cl)ccc1OCc1ccccc1 |  | inactive: 10.3%
17 | COc1ccc(OCCCn2c(C)nc3cc(C)c(C)cc32)cc1 |  | inactive: 11.2%
18 | CCOC(=O)c1c(NC(=O)COc2cccc3c2CCN(CC)C3=O)sc2c1CCC2 | inconclusive: 39.8 µM [activator, single point] | 
19 | CCC1=C(c2ccc(C)cc2)S(=O)(=O)N=C1N1CCC(C(=O)NCCc2cccc(OC)c2)CC1 | inconclusive: 31.6 µM [activator, single point] | 
20 | COc1ccc2c(c1)O[C@H](c1ccc3c(c1)OCO3)[C@@H](OC(=O)N[C@H](C)C1CCCCC1)C2=O | inconclusive: 39.8 µM [inhibitor, single point] | 

Row | SMILES | Potency | max response, negative = inhibition
21 | CCOc1c(C(N)=O)c(-c2ccccc2)c2c(=O)[nH]c3ccccc3n12 |  | inactive: -3.11%
22 | CC1(C)Cc2c(sc3nc(-c4cc5ccccc5o4)n(N)c(=O)c23)CO1 | inconclusive: 39.8 µM [activator, single point] | 
23 | O=C(c1ccc2nc(-c3ccco3)c(-c3ccco3)nc2c1)N1CCN(c2ncccn2)CC1 | inconclusive: 0.794 µM [inhibitor, full curve, poor fit] | 
24 | CCC(C)c1ccccc1NC(=O)COC(=O)c1ccc2[nH]c3c(c2c1)CCCC3 (stereo not drawn) | inconclusive: 20 µM [inhibitor, single point] | 
25 | COc1ccc(C2=Nc3ccccc3N(CC(=O)Nc3cccc(C(C)=O)c3)C(=O)C2)cc1 | inconclusive: 15.8 µM [activator, partial curve] | 
26 | CCOC(=O)c1ccc(NC(=O)C(CC)Sc2nncn3c2cc2oc(C)cc23)cc1 (stereo not drawn) | inconclusive: 25.1 µM [activator, partial curve] | 
27 | COc1nnc(-c2ccc(N3CCOCC3)c(NC(=O)c3ccccc3)c2)c2ccccc12 | inconclusive: 39.8 µM [activator, single point] | 
28 | O=C(O)Cc1c[nH]c2ccc(F)cc12 |  | inactive: 1.98%
29 | CCC1=C2CC[C@H]3C(=O)N(c4ccccc4)C(=O)[C@H]3[C@H]2[C@@]2(C)C(=O)N(Cc3ccccc3)C(=O)N2C1=O |  | inactive: 1.72%
30 | CN(C)c1ccc(CNC(=O)C2CCN(C(=O)c3ccc(-n4ccc5ccccc54)s3)CC2)cc1 |  | inactive: 9.87%
31 | c1cc2c3c(cccc3c1)NC1(CCCCCC1)N2 | active: 12.6 µM | 
32 | COc1ccc2cc3c(N)nn(C(=O)Cc4ccc(Cl)cc4)c3nc2c1 | inconclusive: 31.6 µM [inhibitor, single point] | 
33 | C/C(=N\NC(=O)c1ccccc1)c1ccc(NC(=O)c2cccs2)cc1 | inconclusive: 39.8 µM [inhibitor, single point] | 
34 | COc1cc([N+](=O)[O-])ccc1NC(=O)N1CCC2(CC1)Nc1cc(F)ccc1-n1cccc12 | active: 25.1 µM | 
35 | O=C(NCc1ccco1)c1cc(-c2cccnc2)nc2ccc(Cl)cc12 | inconclusive: 39.8 µM [activator, single point] | 
36 | COc1cc2nc(COc3ccccc3[N+](=O)[O-])oc(=O)c2cc1OC | inconclusive: 39.8 µM [activator, single point] | 
37 | CNC(=O)NC(=O)C(C)OC(=O)c1cc2c(s1)CCCCC2 (stereo not drawn) |  | inactive: -3.93%
38 | COc1cc2c(cc1OC)-c1c(OC)c(OC)c(OC)c3ccnc(c13)C2=O | inconclusive: 39.8 µM [activator, single point] | 
39 | O=C(NN1CCOCC1)c1cc(-c2ccc(Cl)c(Cl)c2)nc2ccccc12 | inconclusive: 39.8 µM [activator, single point] | 
40 | CCOC(=O)N1CCN(C(=O)CN(c2ccc(C)c(C)c2)S(=O)(=O)c2ccccc2)CC1 | inconclusive: 31.6 µM [activator, single point] | 

Row | SMILES | Potency | max response, negative = inhibition
41 | CCCc1nc2ccc(NC(=O)NCCC(=O)OCC)cc2c(=O)n1Cc1ccc(Cl)cc1 | inconclusive: 39.8 µM [activator, single point] | 
42 | COc1ccc(/C=C2\CCCC3C2=NN(C(=O)CSc2ncn[nH]2)C3c2ccc(OC)cc2)cc1 (stereo not drawn) | inconclusive: 39.8 µM [activator, single point] | 
43 | COc1cc2c(cc1OC)-c1nc3ccccc3c(=O)n1C(C)(C)C2 | inconclusive: 39.8 µM [activator, single point] | 
44 | COc1ccc(CCNC(=O)Cn2nc(-c3ccc(Cl)cc3)ccc2=O)cc1OC | inconclusive: 39.8 µM [activator, single point] | 
45 | COc1cc(NC(=O)Cn2cc(S(=O)(=O)N3CCC(C)CC3)c3ccccc3c2=O)cc(OC)c1OC | inconclusive: 39.8 µM [activator, single point] | 
46 | Fc1cccc2sc(Nc3nnc(-c4ccccc4)o3)nc12 | inconclusive: 31.6 µM [inhibitor, single point] | 
47 | O=C1NC2(CCOc3ccccc32)C(=O)N1CC(=O)N(Cc1ccccc1)C1CCS(=O)(=O)C1 (stereo not drawn) | inconclusive: 39.8 µM [activator, single point] | 
48 | O=C(Nc1ccccc1)c1ccc(NCCc2ccccc2)c([N+](=O)[O-])c1 | inconclusive: 31.6 µM [inhibitor, single point] | 
49 | CCOC(=O)c1c(C)n(C)c2cc(-c3cccc(C(F)(F)F)c3)c(O)cc12 | inconclusive: 5.01 µM [inhibitor, full curve] | 
50 | N#Cc1ccc(N2C(=O)[C@@H]3C(C(=O)C(c4ccccc4)c4ccccc4)=NN[C@@H]3C2=O)cc1 | inconclusive: 25.1 µM [inhibitor, single point] | 
51 | COc1cc(C(=O)NCc2nnc(SCC(=O)Nc3nc4ccccc4s3)o2)cc(OC)c1OC | inconclusive: 39.8 µM [activator, single point] | 
52 | COC(=O)/C(C)=C\CC12OC(C)(C)C3CC(C=C4C(=O)c5c(OC)c6c(c(CC=C(C)C)c5OC431)OC(C)(CCC=C(C)C)C=C6)C2=O (stereo not drawn) | inconclusive: 25.1 µM [activator, partial curve] | 
53 | CCOc1ccc(Nc2c(S(=O)(=O)c3ccccc3)cnc3ccc(CC)cc23)cc1 |  | inactive: 8.32%
54 | COc1cccc(N2CCN(C(=O)Cn3ncc4c3-c3ccccc3OC4)CC2)c1 | inconclusive: 25.1 µM [activator, single point] | 
55 | CC(C)CCNC(=O)c1ccc(NC(=O)N2CCCCc3ccccc32)cc1 |  | inactive: -7.99%
56 | CCOC(=O)N1CCC(Nc2nc3ccccc3nc2NS(=O)(=O)c2ccc(Cl)cc2)CC1 | inconclusive: 31.6 µM [activator, single point] | 
57 | O=C(CCc1ccc(S(=O)(=O)N2CCCCC2)cc1)c1nnc(-c2ccccc2)o1 | active: 25.1 µM | 
58 | CO[C@@H]1C=CO[C@]2(C)Oc3c(C)c(O)c4c(O)c(c(C=NN5CCN(C)CC5)c(O)c4c3C2=O)NC(=O)C(C)=CC=C[C@H](C)[C@H](O)[C@H](C)[C@H](O)[C@H](C)[C@H](OC(C)=O)[C@H]1C | inconclusive: 15.8 µM [activator, partial curve] | 
